This passage reports IC50 results from patent US20260137703A1, “2-AMINO-PYRIDO[2,3-D]PYRIMIDIN-7(8H)-ONE AND 7-AMINO-1-PYRIMIDO[4,5-D]PYRIMIDIN-2(1 H)-ONE DERIVATIVES AS EGFR INHIBITORS FOR THE TREATMENT OF CANCER” (Cancer Research Technology Limited, priority 2022, published 2026).

For orientation: IC50 means the concentration needed to halve the response being measured. Read a low IC50 as inhibition by little substance.

In the assay the target is CtermHisTag-mEGFR Triple Mutant (R797S, L858R, T790M) (Homo sapiens, UniProt P00533, C797S/L858R/T790M). Kind of assay: TR-FRET probe displacement, EGFR triple mutant. As to conditions: 1.25 nM EGFR, 100 nM probe, 30 mins room temperature. For orientation: TR-FRET usually uses a lanthanide donor and a delayed reading to cut background.
As to `C#Cc1cc(=O)n(C2CCOC2)c2nc(Nc3ccc(N4CCN(C)CC4)cc3)ncc12` (centres unmarked) [Example 105, 5-ethynyl-2-{[4-(4-methylpiperazin-1-yl)phenyl]amino}-8-(oxolan-3-yl)pyrido[2,3-d]pyrimidin-7-one], the half-maximal inhibitory concentration (IC50) fell in the range of 100 to 1000 nM. Compound `C#Cc1cc(=O)n(C2CCNC2)c2nc(Nc3ccc(N4CCN(C)CC4)cc3)ncc12` (centres unmarked) [Example 106, 5-ethynyl-2-{[4-(4-methylpiperazin-1-yl)phenyl]amino}-8-(pyrrolidin-3-yl)pyrido[2,3-]pyrimidin-7-one] had a half-inhibitory concentration (IC50) of 100 to 1000 nM. Next, `C#Cc1cc(=O)n(C2CCN(C)C2)c2nc(Nc3ccc(N4CCN(C)CC4)cc3)ncc12` (centres unmarked) [Example 107, 5-ethynyl-2-{[4-(4-methylpiperazin-1-yl)phenyl]amino}-8-(1-methylpyrrolidin-3-yl)pyrido[2,3-d]pyrimidin-7-one]: 100 to 1000 nM. The compound `C#Cc1cc(=O)n(C2CNC(=O)C2)c2nc(Nc3ccc(N4CCN(C)CC4)cc3)ncc12` (centres unmarked) [Example 108, 4-(5-ethynyl-2-{[4-(4-methylpiperazin-1-yl)phenyl]amino}-7-oxopyrido[2,3-d]pyrimidin-8-yl)pyrrolidin-2-one] registered an IC50 of 100 to 1000 nM.

Turning to `C#Cc1c(C)c(=O)n(Cc2ccn[nH]2)c2nc(Nc3ccc(N4CCN(C)CC4)cc3)ncc12` [Example 109, 5-ethynyl-6-methyl-2-{[4-(4-methylpiperazin-1-yl)phenyl]amino}-8-(2H-pyrazol-3-ylmethyl)pyrido[2,3-d]pyrimidin-7-one], the concentration for half-maximal inhibition (IC50) lay in the range of 20 to 100 nM.

`C#Cc1c(C)c(=O)n(Cc2ccn(C)n2)c2nc(Nc3ccc(N4CCN(C)CC4)cc3)ncc12` [Example 110, 5-ethynyl-6-methyl-2-{[4-(4-methylpiperazin-1-yl)phenyl]amino}-8-[(1-methylpyrazol-3-yl)methyl]pyrido[2,3-d]pyrimidin-7-one]: the 50% inhibitory concentration (IC50) is 20 to 100 nM. The compound `C#Cc1c(C)c(=O)n(Cc2cnc[nH]2)c2nc(Nc3ccc(N4CCN(C)CC4)cc3)ncc12` [Example 111, 5-ethynyl-8-(3H-imidazol-4-ylmethyl)-6-methyl-2-{[4-(4-methylpiperazin-1-yl)phenyl]amino}pyrido[2,3-d]pyrimidin-7-one] had an IC50 of 100 to 1000 nM. In turn, `C#Cc1c(C)c(=O)n(Cc2ccnn2C)c2nc(Nc3ccc(N4CCN(C)CC4)cc3)ncc12` [Example 112, 5-ethynyl-6-methyl-2-{[4-(4-methylpiperazin-1-yl)phenyl]amino}-8-[(2-methylpyrazol-3-yl)methyl]pyrido[2,3-d]pyrimidin-7-one] returned an IC50 of 20 to 100 nM. In turn, `C#Cc1c(C)c(=O)n(Cc2ccno2)c2nc(Nc3ccc(N4CCN(C)CC4)cc3)ncc12` [Example 113, 5-ethynyl-6-methyl-2-{[4-(4-methylpiperazin-1-yl)phenyl]amino}-8-(1,2-oxazol-5-ylmethyl)pyrido[2,3-d]pyrimidin-7-one] showed a half-inhibitory concentration (IC50) of 20 to 100 nM.

With `C#Cc1c(C)c(=O)n(Cc2ncco2)c2nc(Nc3ccc(N4CCN(C)CC4)cc3)ncc12` [Example 114, 5-ethynyl-6-methyl-2-{[4-(4-methylpiperazin-1-yl)phenyl]amino}-8-(1,3-oxazol-2-ylmethyl)pyrido[2,3-d]pyrimidin-7-one], the IC50 was 20 to 100 nM. Next, `C#Cc1c(C)c(=O)n(Cc2cccnc2)c2nc(Nc3ccc(N4CCN(C)CC4)cc3)ncc12` [Example 115, 5-ethynyl-6-methyl-2-{[4-(4-methylpiperazin-1-yl)phenyl]amino}-8-(pyridin-3-ylmethyl)pyrido[2,3-d]pyrimidin-7-one]: 20 to 100 nM. Consider `C#Cc1c(C)c(=O)n(Cc2cccnc2)c2nc(Nc3ccc(N4CCN(C)CC4)cc3)ncc12` [Example 116, 5-ethynyl-6-methyl-2-{[4-(4-methylpiperazin-1-yl)phenyl]amino}-8-(pyridin-3-ylmethyl)pyrido[2,3-d]pyrimidin-7-one], for which the IC50 was in the range of 100 to 1000 nM. Next, `C#Cc1cc(=O)n(C2CC(=O)N(C)C2)c2nc(Nc3ccc(N4CCN(C)CC4)cc3)ncc12` (centres unmarked) [Example 117, 4-(5-ethynyl-2-{[4-(4-methylpiperazin-1-yl)phenyl]amino}-7-oxopyrido[2,3-d]pyrimidin-8-yl)-1-methylpyrrolidin-2-one]: 100 to 1000 nM; `C#Cc1cc(=O)n(Cc2ccn(C)n2)c2nc(Nc3ccc(N4CCN(C)CC4)cc3)ncc12` [Example 118, 5-ethynyl-2-{[4-(4-methylpiperazin-1-yl)phenyl]amino}-8-[(1-methylpyrazol-3-yl)methyl]pyrido[2,3-d]pyrimidin-7-one]: < 20 nM; `C#Cc1cc(=O)n(CC2CCNC2=O)c2nc(Nc3ccc(N4CCN(C)CC4)cc3)ncc12` (centres unmarked) [Example 119, 3-[(5-ethynyl-2-{[4-(4-methylpiperazin-1-yl)phenyl]amino}-7-oxopyrido[2,3-d]pyrimidin-8-yl)methyl]pyrrolidin-2-one]: 20 to 100 nM. `C#Cc1cc(=O)[nH]c2nc(Nc3ccccc3OC)ncc12` [Example 120, 5-ethynyl-2-((2-methoxyphenyl)amino)pyrido[2,3-d]pyrimidin-7(8H)-one] displayed a 50% inhibitory concentration (IC50) of 100 to 1000 nM. Next, `C#Cc1c(-c2ccccc2)c(=O)n(C)c2nc(Nc3ccc(N(C)CCN(C)C)cc3OC)ncc12` [Example 121, 2-[(4-[[2-(dimethylamino)ethyl](methyl)amino]-2-methoxyphenyl)amino]-5-ethynyl-8-methyl-6-phenylpyrido[2,3-d]pyrimidin-7-one]: 100 to 1000 nM; `C#Cc1c(-c2ccccc2Cl)c(=O)n(C)c2nc(Nc3ccc(N(C)CCN(C)C)cc3OC)ncc12` [Example 122, 6-(2-chlorophenyl)-2-[(4-[[2-(dimethylamino)ethyl](methyl)amino]-2-methoxyphenyl)amino]-5-ethynyl-8-methylpyrido[2,3-d]pyrimidin-7-one]: 20 to 100 nM. For the compound `C#Cc1c(-c2ccccc2Cl)c(=O)n(C)c2nc(Nc3ccccc3OC)ncc12` [Example 123, 6-(2-chlorophenyl)-5-ethynyl-2-[(2-methoxyphenyl)amino]-8-methylpyrido[2,3-d]pyrimidin-7-one], the concentration for half-maximal inhibition (IC50) was 100 to 1000 nM.

For `C#Cc1c(-c2ccccc2Cl)c(=O)n(C)c2nc(Nc3ccccc3)ncc12` [Example 124, 6-(2-chlorophenyl)-5-ethynyl-8-methyl-2-(phenylamino)pyrido[2,3-d]pyrimidin-7-one], the half-inhibitory concentration (IC50) fell in the range of 20 to 100 nM.

For the compound `C#Cc1c(-c2c(Cl)cccc2Cl)c(=O)n(C)c2nc(Nc3cccc(CO)c3)ncc12` [Example 125, 6-(2,6-dichlorophenyl)-5-ethynyl-2-{[3-(hydroxymethyl)phenyl]amino}-8-methylpyrido[2,3-d]pyrimidin-7-one], the IC50 lay within 100 to 1000 nM.

Regarding `C#Cc1c(-c2ccccc2Cl)c(=O)n(C)c2nc(Nc3ccc(N(C)CCN(C)C)cc3)ncc12` [Example 126], the IC50 was < 20 nM. On to `C#Cc1c(-c2ccccc2Cl)c(=O)n(C)c2nc(Nc3ccc(N4CCN(C)CC4)cc3OC)ncc12` [Example 127, 6-(2-chlorophenyl)-5-ethynyl-2-{[2-methoxy-4-(4-methylpiperazin-1-yl)phenyl]amino}-8-methylpyrido[2,3-d]pyrimidin-7-one], for which the half-inhibitory concentration (IC50) is < 20 nM. Regarding `C#Cc1c(-c2ccccc2Cl)c(=O)n(C)c2nc(Nc3ccc(N4CCN(C)CC4)cc3)ncc12` [Example 128, 6-(2-chlorophenyl)-5-ethynyl-8-methyl-2-{[4-(4-methylpiperazin-1-yl)phenyl]amino}pyrido[2,3-d]pyrimidin-7-one], the IC50 was < 20 nM.

`C#Cc1c(-c2ccccc2Cl)c(=O)n(C)c2nc(Nc3ccc(OCCN(C)C)cc3)ncc12` [Example 129, 6-(2-chlorophenyl)-2-({4-[2-(dimethylamino)ethoxy]phenyl}amino)-5-ethynyl-8-methylpyrido[2,3-d]pyrimidin-7-one]: the half-maximal inhibitory concentration (IC50) was < 20 nM.

In turn, `C#Cc1c(-c2ccccc2Cl)c(=O)n(C)c2nc(NCCCCN3CCN(C)CC3)ncc12` [Example 130, 6-(2-chlorophenyl)-5-ethynyl-8-methyl-2-{[4-(4-methylpiperazin-1-yl)butyl]amino}pyrido[2,3-d]pyrimidin-7-one] showed an IC50 of 100 to 1000 nM. As to `C#Cc1c(-c2ccccc2Cl)c(=O)n(C)c2nc(Nc3cccc(OC)c3)ncc12` [Example 131, 6-(2-chlorophenyl)-5-ethynyl-2-[(3-methoxyphenyl)amino]-8-methylpyrido[2,3-]pyrimidin-7-one], the IC50 is 20 to 100 nM.

With `C#Cc1c(-c2ccccc2Cl)c(=O)n(C)c2nc(Nc3cccc(CO)c3)ncc12` [Example 132, 6-(2-chlorophenyl)-5-ethynyl-2-{[3-(hydroxymethyl)phenyl]amino}-8-methylpyrido[2,3-]pyrimidin-7-one], the IC50 was < 20 nM. Regarding `C#Cc1c(-c2ccccc2Cl)c(=O)n(C)c2nc(Nc3ccc(N(C)CCN(C)C)c(C)c3)ncc12` [Example 133, 6-(2-chlorophenyl)-2-[(4-{[2-(dimethylamino)ethyl](methyl)amino}-3-methylphenyl)amino]-5-ethynyl-8-methylpyrido[2,3-d]pyrimidin-7-one], the concentration for half-maximal inhibition (IC50) was < 20 nM. Next, `C#Cc1c(-c2c(Cl)cccc2Cl)c(=O)n(C)c2nc(Nc3ccc(N(C)CCN(C)C)cc3)ncc12` [Example 134, 6-(2,6-dichlorophenyl)-2-[(4-{[2-(dimethylamino)ethyl](methyl)amino}phenyl)amino]-5-ethynyl-8-methylpyrido[2,3-d]pyrimidin-7-one]: 100 to 1000 nM; `C#Cc1c(-c2cccc(F)c2Cl)c(=O)n(C)c2nc(Nc3ccc(N(C)CCN(C)C)cc3)ncc12` [Example 135, 6-(2-chloro-3-fluorophenyl)-2-[(4-{[2-(dimethylamino)ethyl](methyl)amino}phenyl)amino]-5-ethynyl-8-methylpyrido[2,3-d]pyrimidin-7-one]: < 20 nM. Regarding `C#Cc1c(-c2cc(OC)ccc2Cl)c(=O)n(C)c2nc(Nc3ccc(N(C)CCN(C)C)cc3)ncc12` [Example 136, 6-(2-chloro-5-methoxyphenyl)-2-[(4-{[2-(dimethylamino)ethyl](methyl)amino}phenyl)amino]-5-ethynyl-8-methylpyrido[2,3-d]pyrimidin-7-one], the concentration for half-maximal inhibition (IC50) is < 20 nM.
